In the RNAGym collection of RNA variant scans (doi:10.7554/elife.90254):
The source gives no read counts; variants with many changes may rest on few reads.

B1: LINE1-mini (parent)
chain: GGCAGAGCUCAACACAGCGUGGCAAAGUGGCUGUGGCUAGACUGCC

Variants of: B1
Test: self-cleavage, relative activity (ratio to wild type); higher = more cleavage; in vitro, sequencing; the parent is a self-cleaving ribozyme

Variant | self-cleavage
A4G A14C C23G G40A | 0.14
A4C G5U A6G U20G | 0.03
A4C U9A C13A A39U G40A | 0.2
A4G A11G A14C | 0.02
A4G A16C A25C G29A | 0.05
A4G A12C A14C | 0.04
A4G C10A A25C G30C G33U G35U | 0.04
A4C U9A C37U | 0.05
A4G A14C G30A A39U | 0.02
A4G A6G C31G G40C | 0.08
A4C U9G G22A | 0.01
A4C U28A U34C G40C | 0.08
A4C G35A C45G | 0.17
A4G C13A U28G U34C | 0.03
A4C G36U A41G | 0.05
A4G A6C C8A C15A G29A U32A C45A C46U | 0.17
A4C G36A C42A | 0.26
A4C G30C C31A C37U C42G | 0.49
A4C G7U U34C | 0.35
A4G A24C A39C | 0.06
A4G A26G C46G | 0.14
A4C U9A G29C C46A | 0.02
A4G A12G G27U C31A | 0.14
A4G A6C C18A | 0.2

Variant | self-cleavage
A4G C13U C37G | 0.04
A4C G5U C8G A26C A39C G40U | 0.02
A4C G17C C37A U43C | 1.44
A4G A12C U32C U38A | 0.02
A4G A11U U28G | 0.16
A4G A26U U32C U38C U43A | 0.03
A4G C8U G17U A26C U34A A41G | 0.16
A4G C10A G27U C45G | 0.02
A4C U9C A24U U38A | 0.11
A4G A16G C42G | 0.03
A4C U20A G22U | 0.04
A4C U9G G33A | 0.06
A4G C8U A12U | 0.34
A4G A11U G33A | 0.06
A4G A25G A26C G30U | 0.07
A4C U28C U43A C46A | 0.03
A4G A11C G30C C37U | 0.03
A4G C13A C15G G30U | 0.03
A4C U20G U32C | 0.01
A4C G7A C8U C31A | 0.35
A4C G7U A26C | 0.16
A4G A6C G21U A39G | 0.77
A4C G7U C31U | 0.86
A4C G17A A26U | 0.11

Variant | self-cleavage
A4C G7U C8G U28A G40U | 0.12
A4G A39U C42U | 0.02
A4G A11G G29U U43C | 0.01
A4G A11G C23U U32C | 0.01
A4G A12G A24C C37U | 0.1
A4G A11G C15G G17C G30U | 0.03
A4C G36A U43A C45G | 0.04
A4G C8G G19C G21A U28G C31U | 0.01
A4C G22A G30A | 0.09
A4C U20G G29A G36U C37U A39G | 0.02
A4G C10A C42A G44U | 0.01
A4C G17U G21A G29U | 0.14
A4G C8G A16G G27U U32A G36A | 0.01
A4C G22C G27C U28G | 0.18
A4G A11C C13G | 0.04
A4C G5U G17C G21U G36C | 0.04
A4C G7A C15U | 0.24
A4G C10A G19C U43A | 0
A4G C13G U28C G30U G40A C46G | 0.03
A4G A11U C18A | 0
A4G A16C U20C C31A U32C U43A | 0.48
A4C G5C G29A | 0.09
A4G C13A G33U U34G | 0.12
A4C G19C C37A C42A | 0.02

Variant | self-cleavage
A4C U9A G19U C23A | 0.15
A4G C10A A12U A14G | 0
A4G A11U C13U G40A | 0.02
A4C G7A U9A C18U U38A | 0.11
A4G A11U G21A C37A | 0.01
A4C G7A U9G U20G G30A | 0.13
A4C G22A C23U A25U G30U | 0.25
A4C G5U C10A C31A G35A | 0.02
A4C G5C G21C G22A C23G G36C | 0.03
A4C U20G U43G C45U | 0.01
A4G A11C C18A G35U | 0.02
A4C G29A G35C | 0.16
A4G C8G C23U G35A A39C G40C C42A | 0
A4G C8U C31A A39U | 0.03
A4G C10G C15A G22A G29U U43G | 0
A4C G35U U43A | 0.11
A4C G7A G44U | 0.32
A4G A6C G27C G33U | 0.14
A4G A12C G36A C46A | 0.12
A4G A6C C8G A26U U38G A41U G44A | 0.11
A4G A16C C18G | 0.07
A4C G22C G27A G36U | 0.02
A4C G7U A39U | 0.36
A4C G36C G44A | 0.14

Variant | self-cleavage
A4G A24G A26C U32A | 0.14
A4C G27A G30U G40U | 0.41
A4C U9A C15U G19A G35A | 0.03
A4C G27A U28C C31G | 0.05
A4G A11U C31U | 0.02
A4G C13U G40A C45G | 0.08
A4G A6G C8G A12U U20G | 0.01
A4G A6C G33C G40A | 0.09
A4G C8G G17A U20A C23G C46U | 0.01
A4C G17U U34G | 0.17
A4G C8A A12U C15G A25C | 0.06
A4G C10G G17C A39U | 0.03
A4C G7U G17A C46G | 0.25
A4C G7A U9C U28A U32A U43G | 0
A4C G21A C31G C45A | 0.15
A4G C8A G40U | 0.12
A4C U34C U43G C46A | 0.05
A4C G40U G44C | 0.02
A4G C13U U38A C42A G44C | 0.04
A4G A14C A26G G27C A39G A41G | 0
A4G C8A C10U A16G G33C G36C C45U | 0.01
A4G A24G G36U | 0.12
A4C G7U A41U C46U | 0.31
A4C G17U C42U | 0.05

Variant | self-cleavage
A4C G19A U34C A39C | 0.02
A4G C13U A14C A16G U32C A39G G40U | 0.25
A4C G22A A26G C31A A39C | 0.08
A4C G27A G29C C46A | 0.03
A4C G29A G40C A41U | 0.02
A4G A6G A11U C37G G44U | 0.02
A4G C8A C10U G17C | 0.04
A4C G27A C42U | 0.07
A4C G7A A24C C46G | 0.25
A4C G22A G29C G36U A41U | 0.07
A4C G17A G33A | 0.06
A4G C13A G29C | 0.05
A4G C8A A12U G33C U43G C46U | 0
A4C G27C G29U G33C G35U | 0.06
A4G A16G G40A | 0
A4G C10A A39C | 0.01
A4G A12G A39G | 0.02
A4G A11G G19C G33A | 0.04
A4G C8G A14C A16U U32A | 0.06
A4G A25U G40C C42G | 0.02
A4C G22C A26C | 0.07
A4C G5U A11G G17U G27C C31G | 0.01
A4G A39G G44A | 0.24
A4G C8U C10G C23U C45A | 0.01

Variant | self-cleavage
A4G A16C U38G C45A | 0.04
A4G C10G A24C G30U C46A | 0.01
A4G A24C C45U | 0.06
A4G C13U C18A | 0.01
A4C G7C A14U A24G C37A | 0.31
A4G C10U C31A U32G G44A | 0.02
A4G A6G A25C G36C G40A | 0.01
A4C G30C G44A | 0.11
A4C G40A C46A | 0.06
A4C G40A C46U | 0.05
A4G A14C C15U G30A | 0.17
A4C G17U C31G G40C | 0.04
A4G A25G C31A G36A G44U | 0.1
A4C G22C C46G | 0.03
A4C G29C C45U | 0.3
A4G A16C C45G | 0.05
A4G C8A G21U C31U U38A | 0.01
A4C G7C C8U A11U C15A A25U U34G | 0.02
A4G C8G C23A C46U | 0.01
A4C U9A G44U | 0.07
A4G C8G C18G | 0.02
A4C G5U G17U G35C G36A U43C | 0.02
A4C U34C C42A | 0.06
